Laboratory results taken from the RNAGym collection of RNA variant scans (doi:10.1073/pnas.2313332121).
This sample is rich in variants without activity.

B1: TPR 5TU (parent)
chain: GGAUCUUCUCGAUCUAACAAAAAAGACAAAUCUGCCACAAAGCUUGAGAGCAUCUUCGGAUGCAGAGGCGGCAGCCUUCGGUGGCGCGAUAGCGCCAACGUUCUCAACUAUGACACGCAAAACGCGUGCUCCGUUGAAUGGAGUUUAUCAUG

Variants of: B1
Assay: polymerase ribozyme fitness, log enrichment relative to wild type (log ratio); higher = more active; in vitro selection for triplet polymerase activity
In short: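 A single round of triplicate in vitro selection, including frozen incubation at −7 °C, was applied to PCR-built, transcribed mutant libraries of each subunit of a heterodimeric triplet polymerase ribozyme. Illumina sequencing of input and output libraries retained genotypes with ≥10 input reads and ≥1 read per output. Fitness is the base-2 logarithm of genotype enrichment divided by wild-type enrichment, from inverse-variance-weighted replicate averages.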

Row | Variant | polymerase ribozyme fitness (log ratio)
1 | A49G C54A G65C C93G C108A | ≤ -4.2
2 | A49C A73U C85U G100U C105U A138C | ≤ -4.2
3 | A49U A60G U61A C93G | ≤ -4.2
4 | A49U G67A C95U C114G A142C | ≤ -4.2
5 | A49G A52G U55C G84A A91C C99G U101G G141U | ≤ -4.2
6 | A49C G59A C69G C75A C87A A107U C131G | ≤ -4.2
7 | A49G U53C C114U | -2.54
8 | A49U C108U | ≤ -4.2
9 | A49U A107C | ≤ -4.2
10 | A49C G88A | ≤ -4.2
11 | A49C C76U U90C C95A C105U | ≤ -4.2
12 | A49C C51U C57A C95A C105A | ≤ -4.2
13 | A49U G83A U145A | -1.1
14 | A49U A73U C87U | ≤ -4.2
15 | A49C A60G A91G G143U | ≤ -4.2
16 | A49U U55A A106G | -0.994
17 | G50A A91U G126C | ≤ -4.2
18 | A49G C79A A91G U139A | ≤ -4.2
19 | A49U C72U A91G U101G U109C U135G A150U | ≤ -4.2
20 | A49C A60U A106C C108U | ≤ -4.2
21 | A49C G68C G94U A97U C114G G126A U127G | ≤ -4.2
22 | A49C C57U U101G | -2.69
23 | A49C C105U A106G | ≤ -4.2
24 | A49C G68A | ≤ -4.2

Row | Variant | polymerase ribozyme fitness (log ratio)
25 | A49U C54G U55A G59A A60G U90G A106U G124C | ≤ -4.2
26 | A49C G62U A107U G152A | ≤ -4.2
27 | A49C C118A U127A A147U | ≤ -4.2
28 | A49C G62A G65U | ≤ -4.2
29 | A49C G58C C93A A122G | ≤ -4.2
30 | A49U U55A G62U A73G G86C | ≤ -4.2
31 | G50A A66G U77A C96G U134G A137C | ≤ -4.2
32 | A49G C149A | ≤ -4.2
33 | G48U C103A U104G C132A | ≤ -4.2
34 | G50A C51U U55A C76A C105U C108G | ≤ -4.2
35 | A49U A91G | ≤ -4.2
36 | A49G U53A G59A A142U | -2.64
37 | A49C G59A C76A A98G | ≤ -4.2
38 | A49C U145G | ≤ -4.2
39 | A49C G50A C51G G59C G65A U109A G117A | ≤ -4.2
40 | A49G G50C G71C G94C C105U U135G | ≤ -4.2
41 | A49C U101C C123A C129A | ≤ -4.2
42 | A49C C87G C99G U111C U151A | ≤ -4.2
43 | A49C C79G A89C C93U G152A | ≤ -4.2
44 | A49C G68A G84A C125U U127A G128U | ≤ -4.2
45 | G48U G84U | -2.01
46 | A49U A89U A91U | ≤ -4.2
47 | A49U U53A G68U C87U | ≤ -4.2
48 | A49C U61G G62A G81C | -4.13

Row | Variant | polymerase ribozyme fitness (log ratio)
49 | A49C G86A C129A C132U U148A G152U | ≤ -4.2
50 | A49C G68A C96G | ≤ -4.2
51 | A49U A52C G83U A91U G136A | ≤ -4.2
52 | A49C C93U | ≤ -4.2
53 | A49C U56A C76A C87G G88C | ≤ -4.2
54 | A49U C93U G100U C116U | ≤ -4.2
55 | A49U A66G G84A C87U A98G | ≤ -4.2
56 | A49C U56C | ≤ -4.2
57 | A49C A64C C93G C95G C99G C105G U135C A142G | ≤ -4.2
58 | A49G G58C C76U A89G C99G C116U C129A | ≤ -4.2
59 | A49G U53A G86C C87U | ≤ -4.2
60 | A49G U61G G62A A107C | ≤ -4.2
61 | G50A A60C G86A | -3.81
62 | A49G C85G A91U G126C | ≤ -4.2
63 | A49C C69U G84A C93U C96U C129G U148C | ≤ -4.2
64 | A49U C87U C103U | ≤ -4.2
65 | A49C G68U C85U G100U C125U | ≤ -4.2
66 | A49U C76A U77G C95G C96U C108U A142G | ≤ -4.2
67 | A49C C85A U90G G94U A107G G141U | ≤ -4.2
68 | A49G A73U G83U U90G C95U C96A G136A | ≤ -4.2
69 | A49C G80A A89U C93A G94U | ≤ -4.2
70 | A49C G65A A73U U102C G140A A150C | ≤ -4.2
71 | A49C A52G C85A C118A | ≤ -4.2
72 | A49C U56G U61A A64U C93A A113C G117C U144C | ≤ -4.2

Row | Variant | polymerase ribozyme fitness (log ratio)
73 | G48U U56A U78G C87A G128U | ≤ -4.2
74 | A49G G94C G100U G126U U134A | ≤ -4.2
75 | A49G A60G C85U | -0.602
76 | A49U G81C A91G C103U U109G | ≤ -4.2
77 | A49G A73G | -0.67
78 | G48U G58A U104G C105U A115G | ≤ -4.2
79 | A49C G67A G92U A138C | ≤ -4.2
80 | A49U U53C A98U U148C | ≤ -4.2
81 | A49C G68A C96U A98C C108G | ≤ -4.2
82 | A49C U61A A97G U148G | ≤ -4.2
83 | A49U G136A G141A | -0.805
84 | A49G C75U C96G | -2.68
85 | G48U G50C C63G G80A C93G A147U G152A | ≤ -4.2
86 | A49U C99G C108G | ≤ -4.2
87 | A49C G50C A91U C96G | ≤ -4.2
88 | A49G C85U U139A | ≤ -4.2
89 | A49G U55A G59A U78G C95A A97U A142C | ≤ -4.2
90 | A49G G62A G86C U111G G128U U135C G136C | ≤ -4.2
91 | A49U C54G C72A U82G A110U | ≤ -4.2
92 | A49U G58C G124U | -1.3
93 | G48U G126U | -0.307
94 | A49C A52C C93U | ≤ -4.2
95 | G48U U61G A97U A106U G126A C131U | ≤ -4.2
96 | A49U U61A C87A G140C | ≤ -4.2

Row | Variant | polymerase ribozyme fitness (log ratio)
97 | A49G A52G U78G G80A C108G U127G | ≤ -4.2
98 | G50A A52U A66C C85A | ≤ -4.2
99 | A49C G50U G84A | ≤ -4.2
100 | G50A A64C C95G C114U | ≤ -4.2
101 | A49C U55G G80A G84U U101C | ≤ -4.2
102 | A49C G84U A142G | ≤ -4.2
103 | A49U C93A C99A | ≤ -4.2
104 | A49C C99U U145A | ≤ -4.2
105 | A49C C99U U102G | -0.308
106 | G50A A60C G62A C76U C96U G100U C108G | ≤ -4.2
107 | G48U G83A C96U G128U G133U | ≤ -4.2
108 | A49G A66C A91C G100C | ≤ -4.2
109 | A49C C69A A97U C105G A106G | ≤ -4.2
110 | A49C U56A A113U G152U | -3.93
111 | A49U G58C A66G G80U C85A C87A C108G G128U C149U | ≤ -4.2
112 | G50A A52C U55G G84U A107G G140A | ≤ -4.2
113 | A49C C51U C95U C96A G112A G126A | ≤ -4.2
114 | A49G G88U C96G U144C U148C U151G | ≤ -4.2
115 | A49U G58C | -0.846
116 | A49C C93A U104A A119C C132U G141C U145G | ≤ -4.2
117 | A49C G83C A91G C131U G141C | ≤ -4.2
118 | A49C G74U U77G | ≤ -4.2
119 | G48U G100C U144A | ≤ -4.2
120 | A49G C54U U109G | -2.26

Row | Variant | polymerase ribozyme fitness (log ratio)
121 | A49G G59U G84C C99U | ≤ -4.2
122 | A49C C93G A119G | ≤ -4.2
123 | A49U A142C | -1.43
124 | A49U U56A U144G U148G | ≤ -4.2
125 | A49U G84U A97C G126C A138G A150G | ≤ -4.2
126 | A49U C54U G88A C96U G141A C149U | ≤ -4.2
127 | A49G U53A G58C C85A G86U A97U U102A C103U | ≤ -4.2
128 | A49U C96A | -3.45
129 | G50A C54G G86C A97U C108U | ≤ -4.2
130 | A49U G71C C85A | ≤ -4.2
131 | A49C C103G A110C | ≤ -4.2
132 | A49U A64C C75U A91G A121U | ≤ -4.2
133 | A49G U55C C75G C96A A138C | ≤ -4.2
134 | A49C G81C C93A A107C C118U | ≤ -4.2
135 | A49C C79U C85U C132A U134A | ≤ -4.2
136 | A49G A66G G71C C87G C95G A120G G124C A142U | ≤ -4.2
137 | A49C G140C | ≤ -4.2
138 | A49U U55A C76A G83A | ≤ -4.2
139 | A49C C85U C96A A98U | ≤ -4.2
140 | G48U G59A C93U | -1.39
141 | A49C U53A C96A G112A C118A G143C U144A | ≤ -4.2
142 | A49U C87A | ≤ -4.2
143 | A49U U55A U139A G140A | ≤ -4.2
144 | G48U G50A G94A A142U | ≤ -4.2

Row | Variant | polymerase ribozyme fitness (log ratio)
145 | A49C C57U C76A C93A | ≤ -4.2
146 | A49U G81A C93U U151G | ≤ -4.2
147 | A49C A89U | ≤ -4.2
148 | A49C G83C C105A C132A | ≤ -4.2
149 | A49C A52G C69A C93G C149A | ≤ -4.2
150 | A49C C108G | ≤ -4.2
151 | A49U C57A A73U G140U | ≤ -4.2
152 | A49G C93U C103G U135A G141A | ≤ -4.2
153 | A49G G50A U56A C95U U101C U111G | ≤ -4.2
154 | G48U G62C C125G | ≤ -4.2
155 | A49C G88A A89G A119U U127A | ≤ -4.2
156 | A49C U146A | -3.98
157 | A49C U146C | ≤ -4.2
158 | A49U G50A C85G C116G A121U | -1.16
159 | A49G G88U U145A | ≤ -4.2
160 | A49C G59C A91U | ≤ -4.2
161 | A49C A60G A91U G140A | ≤ -4.2
162 | A49C G68A C105U A120U | ≤ -4.2
163 | A49C A137C | ≤ -4.2
164 | A49C C85U | -3.49
165 | A49C G81C C85U A98U U104C | ≤ -4.2
166 | A49C C54A U78G C93U G124A | ≤ -4.2
167 | A49U G84A G94U G136U | ≤ -4.2
